For 17 compounds, activity change, negative = inhibition results are on record in PubChem BioAssay AID1745853 (National Center for Advancing Translational Sciences (NCATS), 2022).

Common to all, as to experiment: Primary Screen for Target Class Profiling of Small Molecule Inhibitors of Methyltransferases
Assay [1] has as its target Guanidinoacetate N-methyltransferase (Homo sapiens) (UniProt Q14353). The following applies: purified enzyme, MTase-Glo SAH luminescence; measured here: GAMT inhibition; at 40 µM; stronger effect = lower value. An outline of the steps: (§1)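 Each enzyme was assayed with SAM and its substrate. SAH formation detected by MTase-Glo luminescence; single-point 40 uM screen[…].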

The target in assay [2] is Nicotinamide N-methyltransferase (Homo sapiens) (UniProt P40261). The settings on record: purified enzyme, MTase-Glo SAH luminescence; measured here: NNMT inhibition; at 40 µM; stronger effect = lower value. The procedure, abridged: as §1
The target in assay [3] is Phenylethanolamine N-methyltransferase (Homo sapiens) (UniProt P11086). The following applies: purified enzyme, MTase-Glo SAH luminescence; measured here: PNMT inhibition; at 40 µM; stronger effect = lower value. An outline of the steps:
as §1

Assay [4] deals with Glycine N-methyltransferase (Homo sapiens) (UniProt Q14749). The settings on record: purified enzyme, MTase-Glo SAH luminescence; measured here: GNMT inhibition; at 40 µM; stronger effect = lower value. An outline of the steps: as §1
Assay [5] addresses Histamine N-methyltransferase (Homo sapiens) (UniProt P50135). The settings on record: purified enzyme, MTase-Glo SAH luminescence; measured here: HNMT inhibition; at 40 µM; stronger effect = lower value. The procedure, abridged:
as §1

The other results are listed elsewhere or left out. Shown are side measurements of this screen, not its main read-out; they come without a call.
On the % scale 0 is the no-effect control and ±100 the full control effect.

As for `CC/C=C\CC1C(=O)CCC1CC(=O)OC` (stereo not drawn), the activity change, negative = inhibition in assay [1] is 10.1%; in assay [2], -5.1%; in assay [3], 6.31%.
As to `CNCC[C@H](Oc1ccc(C(F)(F)F)cc1)c1ccccc1`, the activity change, negative = inhibition in assay [4] is -6.57%; in assay [1], 1.48%; in assay [5], -4.26%; in assay [2], -15.1%; in assay [3], 2.37%.
On the same counts, the results for `COc1cccc(Cn2nc3n(C(C)C)c(=O)c4ccc(C(=O)NC(C)C)cc4n3c2=O)c1` are -2.2%, 0.629%, 7.32%, -4.46% and 3.61%.
On the same counts, the results for `Cc1cc2[nH]c(=O)[nH]c2cc1S(=O)(=O)Nc1cccc(F)c1` are 13%, 0%, 11.5%, -1.63% and 3.62%.
On the same counts, the results for `CCOCCCNc1nc2c(S(=O)(=O)c3ccc(C)c(C)c3)nnn2c2ccccc12` are -1.51%, 2.08%, 1.58%, 2.84% and -1.55%.
Take `Cc1ccc(NC(=O)CC2CCN(S(C)(=O)=O)C2)cc1` (stereo not drawn): the activity change, negative = inhibition in assay [4] was -2.63%; in assay [1] it was -0.986%; in assay [5] it was -0.011%; in assay [2], -1.94%; in assay [3], 1.28%.
On the same counts, the results for `C[S+](=O)([O-])CCn1ncc2cc(OCC3CCN(Cc4ccccc4)CC3)ccc21` are -9.99%, -11.9%, -39.5%, -32% and -8.81%.
On the same counts, the results for `CC1(C(=O)NC2CCCCCCC2)Cn2c(cc3sccc32)C(=O)N1c1cccc(Cl)c1` (stereo not drawn) are -1.96%, 1.22%, 3.65%, 1.9% and -3.54%.
On the same counts, the results for `CC1(C)C(O)CCC2(C)C1C(O)C=C1COC(=O)C12O` (stereo not drawn) are 0%, -2.57%, -1.91%, -13% and -1.93%.
As for `CCC(C)NC(=O)Cn1nc2n(C(C)C)c(=O)c3ccc(C(=O)NC4CCCC4)cc3n2c1=O` (stereo not drawn), the activity change, negative = inhibition was found to be 5.32% in assay [4]; 0% in assay [1]; 2.96% in assay [5]; 0.36% in assay [2]; 0.437% in assay [3].
On the same counts, the results for `OCCc1ccc(O[C@@H]2O[C@H](CO)[C@@H](O)[C@H](O)[C@H]2O)c(O)c1` are -1.36%, -5.18%, 4.64%, -16.5% and 0.421%.
On the same counts, the results for `Cc1cc(C)c2c(N3CCCC(OCc4cccnc4)C3)ncnc2n1` (stereo not drawn) are -14.3%, -6.7%, -10.4%, -13.4% and -6.84%.
On the same counts, the results for `CCS(=O)(=O)Nc1ccc(C)n(CC(=O)N(C)Cc2ccccc2)c1=O` are -5.31%, -3.98%, -0.946%, -3.6% and -2.82%.
For the compound `NCCCC[C@H](NC(=O)[C@@H]1Cc2ccccc2CN1C(=O)CCC(=O)c1ccccc1)C(=O)NCC(c1ccccc1)c1ccccc1`, the activity change, negative = inhibition is 1.54% in assay [4]; 3.58% in assay [1]; 4.47% in assay [5]; -16.4% in assay [2]; 3.09% in assay [3].
Regarding `O=C(c1nc(-c2cc(Cl)cc(Cl)c2)c2ccccn12)N1CCCC1`, the activity change, negative = inhibition in assay [4] was -6.41%; in assay [1] it was -8.67%; in assay [5] it was -4.04%; in assay [2], -32.8%; in assay [3], -7.18%.
On the same counts, the results for `COc1ccc(CCNc2nc3c(-c4cccc(F)c4)nnn3c3ccccc23)cc1OC` are -34.9%, -2.74%, -2.46%, -15.6% and -4.64%.
On the same counts, the results for `CC(=O)OCC(=O)[C@@]1(O)CC[C@H]2[C@@H]3CCC4=CC(=O)CC[C@]4(C)[C@H]3C(=O)C[C@@]21C` are 1.86%, 8.1%, 0.807%, -5.99% and -0.573%.
